Source: patent US20260176373A1 (BRIGHT BIOLOGICS, published 2026)

Columns and labels:
[1] = biological target: T1, human HER2 (human epidermal growth factor receptor 2) (human, UniProt P04626); assay: flow cytometry whole cell binding, CHO-h-HER2 stable cells
T1 construct: whole, on cells; also called ERBB2; h-HER2

[2] = biological target: T2, human TROP2 (Trophoblast cell-surface antigen 2) (human, UniProt P09758 27-323); assay: flow cytometry whole cell binding, CHO-h-TROP2 stable cells
T2 construct: whole, on cells; also called TACSTD2; h-TROP2
T2 sequence (looked up): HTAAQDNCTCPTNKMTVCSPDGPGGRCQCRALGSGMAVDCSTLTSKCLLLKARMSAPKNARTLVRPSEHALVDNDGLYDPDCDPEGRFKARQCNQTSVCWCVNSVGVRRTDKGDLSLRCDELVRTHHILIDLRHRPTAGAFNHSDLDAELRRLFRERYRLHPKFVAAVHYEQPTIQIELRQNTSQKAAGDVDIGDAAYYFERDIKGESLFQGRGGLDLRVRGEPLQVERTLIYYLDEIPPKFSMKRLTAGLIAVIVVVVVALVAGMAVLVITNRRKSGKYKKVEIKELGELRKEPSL

[3] = biological target: T2, human TROP2 (Trophoblast cell-surface …); assay: cell-based or functional assay
[4] = biological target: T1, human HER2 (human epidermal growth …); assay: flow cytometry whole cell binding, SKBR3 cells
[5] = biological target: T2, human TROP2 (Trophoblast cell-surface …); assay: cell-based or functional assay; remark: listed apart in the source
[6] = biological target: T1, human HER2 (human epidermal growth …); assay: cell-based or functional assay
[7] = biological target: T3, recombinant h-HER2 ECD (his-tagged) (human, UniProt P04626 fragment); assay: BLI, antibody loaded on the sensor at 300 nM, 200 nM h-HER2 ECD-his
T3 construct: extracellular domain; Analyte in the BLI assay at 200 nM; also called human HER2; not shown: his tag

EC50 [1]: 1.57 nM
EC50 [2]: 1.98 nM
B1: 1H11-hv10+11D5_Fc (bispecific antibody)
chain: EVQLVESGGGLVQPGGSLRLSCAASGGTFSRYIMSWFRQAPGKEREFVSAISGSGGSTYYADSVKGRFTISRDNSKNTLYLQMNSLRAEDTAVYYCASTFYSTTYVAQRDARDYAYWGQGTQVTVSSGSGGSGGSGGSGQVQLVESGGGVVQPGRSLRLSCAASGSTFSSLAMHWVRQAPGKERELVAAISYSGGYTYYADSVKGRFTISRDNSKNTLYLQMNSLRAEDTAVYYCAASSIFIGAYDYWGQGTLVTVSS[here human IgG1 Fc with C220S (EU numbers) without letters]
notes: anti-HER2/TROP2 BsAb, C220S in the hinge region; also called tandem format

binding result [4]: binds
B2: 1H11-hv8+11D5_Fc (bispecific antibody)
chain: B1 chain with S35G, A50T
notes: anti-HER2/TROP2 BsAb, C220S in the hinge region; also called tandem format BsAb
IC50, nM, Killing of NCI-H441 cells by 2nd Ab-MMAE [3]: 0.12 nM

EC50 [1]: 0.85 nM
EC50 [2]: 36.6 nM
B3: 11D5_Fc_1H11-hv10 (bispecific antibody)
chain: QVQLVESGGGVVQPGRSLRLSCAASGSTFSSLAMHWVRQAPGKERELVAAISYSGGYTYYADSVKGRFTISRDNSKNTLYLQMNSLRAEDTAVYYCAASSIFIGAYDYWGQGTLVTVSS[here human IgG1 Fc with C220S (EU numbers) without letters]GSGGSGGSGGSGGSGEVQLVESGGGLVQPGGSLRLSCAASGGTFSRYIMSWFRQAPGKEREFVSAISGSGGSTYYADSVKGRFTISRDNSKNTLYLQMNSLRAEDTAVYYCASTFYSTTYVAQRDARDYAYWGQGTQVTVSS
notes: anti-HER2/TROP2 BsAb, C220S in the hinge region

B4: 1H11-hv8_Fc_MMAE (other)
chain: EVQLVESGGGLVQPGGSLRLSCAASGGTFSRYIMGWFRQAPGKEREFVSTISGSGGSTYYADSVKGRFTISRDNSKNTLYLQMNSLRAEDTAVYYCASTFYSTTYVAQRDARDYAYWGQGTQVTVSS[here human IgG1 Fc with C220S (EU numbers) without letters]
modifications: vc-MMAE conjugated to the hinge cysteines (2 Cysteines in each hinge region); DAR 3.8
IC50, nM, in killing assay, AU-565 cells [5]: 0.0336 nM
IC50, nM, in killing assay, Colo205 cells [5]: 0.42 nM
IC50, nM, in killing assay, N87 cells [5]: 0.095 nM
IC50, nM, in killing assay, NCI-H441 cells [5]: 0.054 nM
IC50, nM, in killing assay, NCI-H1975 cells [5]: 0.29 nM
IC50, nM, in killing assay, OE-19 cells [5]: 0.889 nM
IC50, nM, in killing assay, SK-OV3 cells [5]: 1.21 nM
IC50, nM, in killing assay, SKBR3 cells [5]: 0.0282 nM
IC50, nM, in killing assay, T-47D cells [5]: 0.21 nM

EC50 [1]: 0.34 nM
EC50 [2]: 13 nM
B5: 11D5+1H11-hv10_Fc (bispecific antibody)
chain: QVQLVESGGGVVQPGRSLRLSCAASGSTFSSLAMHWVRQAPGKERELVAAISYSGGYTYYADSVKGRFTISRDNSKNTLYLQMNSLRAEDTAVYYCAASSIFIGAYDYWGQGTLVTVSSGSGGSGGSGGSGEVQLVESGGGLVQPGGSLRLSCAASGGTFSRYIMSWFRQAPGKEREFVSAISGSGGSTYYADSVKGRFTISRDNSKNTLYLQMNSLRAEDTAVYYCASTFYSTTYVAQRDARDYAYWGQGTQVTVSS[here human IgG1 Fc with C220S (EU numbers) without letters]
notes: as for B3

B6: 11D5_Fc_MMAE (other)
chain: QVQLVESGGGVVQPGRSLRLSCAASGSTFSSLAMHWVRQAPGKERELVAAISYSGGYTYYADSVKGRFTISRDNSKNTLYLQMNSLRAEDTAVYYCAASSIFIGAYDYWGQGTLVTVSS[here human IgG1 Fc with C220S (EU numbers) without letters]
modifications: vc-MMAE conjugated to the hinge cysteines (2 Cysteines in each hinge region); DAR 4.0
IC50, nM, in killing assay, AU-565 cells [6]: 0.0289 nM
IC50, nM, in killing assay, Colo205 cells [6]: 19.6 nM
IC50, nM, in killing assay, N87 cells [6]: 0.094 nM
IC50, nM, in killing assay, NCI-H441 cells [6]: 13 nM
IC50, nM, in killing assay, NCI-H1975 cells [6]: 14.7 nM
IC50, nM, in killing assay, OE-19 cells [6]: 0.111 nM
IC50, nM, in killing assay, SK-OV3 cells [6]: 0.072 nM
IC50, nM, in killing assay, SKBR3 cells [6]: 0.0247 nM
IC50, nM, in killing assay, T-47D cells [6]: 38.9 nM

EC50 [1]: 0.335 nM
EC50 [2]: 3.46 nM
B7: 1H11-hv10_Fc_11D5 (bispecific antibody)
chain: EVQLVESGGGLVQPGGSLRLSCAASGGTFSRYIMSWFRQAPGKEREFVSAISGSGGSTYYADSVKGRFTISRDNSKNTLYLQMNSLRAEDTAVYYCASTFYSTTYVAQRDARDYAYWGQGTQVTVSS[here human IgG1 Fc with C220S (EU numbers) without letters]GSGGSGGSGGSGGSGQVQLVESGGGVVQPGRSLRLSCAASGSTFSSLAMHWVRQAPGKERELVAAISYSGGYTYYADSVKGRFTISRDNSKNTLYLQMNSLRAEDTAVYYCAASSIFIGAYDYWGQGTLVTVSS
notes: anti-HER2/TROP2 BsAb, C220S in the hinge region; also called N-, C-terminal format

binding result [4]: binds
binding result [7]: binds
B8: 1H11-hv8_Fc_11D5 (bispecific antibody)
chain: B7 chain with S35G, A50T
notes: anti-HER2/TROP2 BsAb, C220S in the hinge region; also called N-, C-terminal format BsAb; lead BsAb
IC50, nM, Killing of NCI-H441 cells by 2nd Ab-MMAE [3]: 0.15 nM

Residue numbers refer to the chain shown, from its start. In names and notes the source's numbering stands. One block for each binder: values may come before it.
